Data published in patent publication US20220106400A1 (Bristol-Myers Squibb, published 2022).

T1: hCD32a-R131 (human, UniProt P12318 36-218)
T1 construct: Purified FcgR protein generated in house; described with a C-terminal 6x poly-histidine tag; also called FcgRIIa-R131
T1 sequence (looked up): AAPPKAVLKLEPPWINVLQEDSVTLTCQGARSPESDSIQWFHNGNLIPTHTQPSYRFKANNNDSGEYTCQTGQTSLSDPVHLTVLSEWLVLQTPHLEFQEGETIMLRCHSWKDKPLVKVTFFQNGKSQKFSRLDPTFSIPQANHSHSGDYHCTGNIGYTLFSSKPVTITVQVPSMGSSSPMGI


Legend:
[1] = biological target: T2, hCD40-Fc (human, UniProt P25942 in part); experiment: SPR, immobilized hCD40-Fc, dAb-Fc analyte (avidity)
T2 construct: not shown: Fc part of hCD40-Fc, not described

[2] = biological target: T3, hCD64 (human, UniProt P12314 16-288, limits assumed); experiment: SPR (Biacore), FcgR analyte titration over protein A-captured dAb-Fc
T3 construct: Purified FcgR protein generated in house; also called hFcgRI; FcgRI
Description: (§1) A second SPR assay for testing the interaction between antibodies or dAb-Fc proteins with FcgR proteins is a protein A capture method. These experiments are also performed on either a Biacore™ T100 or Biacore™ T200 instrument (GE Healthcare) at 25° C. For these studies, protein A is immobilized on flow cells 1-4 of a CM5 sensor chip using standard ethyl (dimethylaminopropyl) carbodiimide (EDC)/N-hydroxysuccinimide (NHS) chemistry, with ethanolamine blocking, in a running buffer of 10 mM HEPES pH 7.4, 150 mM NaCl, 3 mM EDTA, 0.05% surfactant p20, to a density of ˜3000 RU.

[3] = biological target: T1, hCD32a-R131; experiment: as above
Description: as §1

hCD40-Fc, sequence (P25942 21-193): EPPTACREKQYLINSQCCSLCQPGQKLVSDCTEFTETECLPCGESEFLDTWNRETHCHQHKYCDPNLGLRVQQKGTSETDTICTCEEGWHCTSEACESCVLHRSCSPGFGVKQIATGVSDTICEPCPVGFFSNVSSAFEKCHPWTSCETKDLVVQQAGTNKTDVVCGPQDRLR
T3 sequence (P12314 16-288 limits assumed): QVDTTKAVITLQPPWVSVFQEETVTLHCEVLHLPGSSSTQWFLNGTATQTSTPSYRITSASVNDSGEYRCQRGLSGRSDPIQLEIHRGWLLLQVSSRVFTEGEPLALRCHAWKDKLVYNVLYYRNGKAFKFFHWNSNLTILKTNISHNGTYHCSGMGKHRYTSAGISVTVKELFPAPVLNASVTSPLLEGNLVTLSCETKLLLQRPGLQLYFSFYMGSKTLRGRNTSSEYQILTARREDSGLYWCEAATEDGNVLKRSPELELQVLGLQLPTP

| KDapparent [1] [nM] | Kd [2] [nM] | Kd [3] [nM] | Binder |
| --- | --- | --- | --- |
| – | 2.8 | 2200 | 3h56-269-IgG4.1 (Fc fusion, also called BMS-986090) EVQLLESGGGLVQPGGSLRLSCAASGFTFRDYEMWWVRQAPGKGLERVSAINPQGTRTYYADSVKGRFTISRDNSKNTLYLQMNSLRAEDTAVYYCAKLPFRFSDRGQGTLVTVSSAST[human IgG4 Fc with S228P (EU numbers) skipped] |
| < 1 | – | – | 3h56-269-IgG4.1 (Fc fusion, dAb-Fc fusion protein; also called BMS-986090) EVQLLESGGGLVQPGGSLRLSCAASGFTFRDYEMWWVRQAPGKGLERVSAINPQGTRTYYADSVKGRFTISRDNSKNTLYLQMNSLRAEDTAVYYCAKLPFRFSDRGQGTLVTVSSAST[human IgG4 Fc with S228P (EU numbers) skipped] |
| – | 62 | – | 3h56-269-IgG1-D265A (Fc fusion) EVQLLESGGGLVQPGGSLRLSCAASGFTFRDYEMWWVRQAPGKGLERVSAINPQGTRTYYADSVKGRFTISRDNSKNTLYLQMNSLRAEDTAVYYCAKLPFRFSDRGQGTLVTVSSAST[human IgG1 Fc with D265A (EU numbers) skipped] |

Further lines, the binder ahead of its results:

| Binder | KDapparent [1] [nM] | Kd [2] [nM] | Kd [3] [nM] |
| --- | --- | --- | --- |
| 3h56-269-CT (Fc fusion, dAb-Fc fusion protein) EVQLLESGGGLVQPGGSLRLSCAASGFTFRDYEMWWVRQAPGKGLERVSAINPQGTRTYYADSVKGRFTISRDNSKNTLYLQMNSLRAEDTAVYYCAKLPFRFSDRGQGTLVTVSSAST[human IgG1 Fc with changes skipped] | < 1 | – | – |
| 3h56-269-CT (UCOE-CHO) (Fc fusion) EVQLLESGGGLVQPGGSLRLSCAASGFTFRDYEMWWVRQAPGKGLERVSAINPQGTRTYYADSVKGRFTISRDNSKNTLYLQMNSLRAEDTAVYYCAKLPFRFSDRGQGTLVTVSSAST[human IgG1 Fc with changes skipped] | < 1 | – | – |
| 3h56-269-IgG1-D265A (Fc fusion, dAb-Fc fusion protein) EVQLLESGGGLVQPGGSLRLSCAASGFTFRDYEMWWVRQAPGKGLERVSAINPQGTRTYYADSVKGRFTISRDNSKNTLYLQMNSLRAEDTAVYYCAKLPFRFSDRGQGTLVTVSSAST[human IgG1 Fc with D265A (EU numbers) skipped] | < 1 | – | – |
